Source: the supplement of paper PMC4967469
A lower IC50 marks a more sensitive line; where the fit passes the top or lowest dose, that dose stands as a limit. For AUC the same curve is integrated over the 256-fold range of doses and scaled to a fraction; it is 1 without any effect and falls as sensitivity rises. For some of these results: An inferred top dose comes from the curve model; the source does not state it. For some of these results: An entry number marks a drug with two screens in the source, which often give different values.

Assays:
Assay in all cases: Viability of human cancer cell lines after 72 h of drug (GDSC screen)
LFM-A13 = compound: C/C(O)=C(\C#N)C(=O)Nc1cc(Br)ccc1Br [LFM-A13]; details: top dose 16 µM; top dose inferred
Protocol: (§1)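 Human cancer cell lines in 384-well plates, medium with 10% serum, drug for 72 h over a 256-fold dose range (nine 2-fold or five 4-fold steps up to the top dose). Adherent lines were fixed and stained with the nucleic acid dye Syto60, suspension lines read with resazurin; signal relative to control wells, capped at 0 and 100%. One two-parameter sigmoid per drug and line, fitted in a mixed model over all curves with the slope shared within a line.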

TW-37 = compound: CC(C)c1ccccc1Cc1cc(C(=O)Nc2ccc(S(=O)(=O)c3ccccc3C(C)(C)C)cc2)c(O)c(O)c1O [TW-37]; details: top dose 5 µM
Protocol: as §1

Bicalutamide = compound: CC(O)(CS(=O)(=O)c1ccc(F)cc1)C(=O)Nc1ccc(C#N)c(C(F)(F)F)c1 [Bicalutamide]; details: top dose inferred
Protocol: as §1

AUY922 = compound: CCNC(=O)c1noc(-c2cc(C(C)C)c(O)cc2O)c1-c1ccc(CN2CCOCC2)cc1 [AUY922]; details: top dose 0.256 µM; top dose inferred
Protocol: as §1

KIN001-270 = compound: Cc1ccc(Nc2cc(-c3cccc(N4C(=O)c5ccccc5C4=O)c3)ncn2)cc1NS(C)(=O)=O [KIN001-270]; details: top dose 20 µM; top dose inferred
Protocol: as §1

Gemcitabine = compound: Nc1ccn([C@@H]2O[C@H](CO)[C@@H](O)C2(F)F)c(=O)n1 [Gemcitabine]; details: top dose 1.024 µM
Protocol: as §1

T0901317 = compound: O=S(=O)(c1ccccc1)N(CC(F)(F)F)c1ccc(C(O)(C(F)(F)F)C(F)(F)F)cc1 [T0901317]; details: top dose 10.24 µM; top dose inferred
Protocol: as §1

MP470 = compound: S=C(NCc1ccc2c(c1)OCO2)N1CCN(c2ncnc3c2oc2ccccc23)CC1 [MP470]; details: top dose 20 µM; top dose inferred
Protocol: as §1

[1] = top dose 1.024 µM, screen: GDSC drug entry 150
[2] = top dose 10 µM, screen: GDSC drug entry 1502

Cell Line | AUC (LFM-A13) | IC50 (LFM-A13) [nM] | AUC (TW-37) | IC50 (TW-37) [nM] | AUC (Bicalutamide; [1]) | IC50 (Bicalutamide; [1]) [nM] | AUC (Bicalutamide; [2]) | IC50 (Bicalutamide; [2]) [nM] | AUC (AUY922) | IC50 (AUY922) [nM] | AUC (KIN001-270) | IC50 (KIN001-270) [nM] | AUC (Gemcitabine) | IC50 (Gemcitabine) [nM] | AUC (T0901317) | IC50 (T0901317) [nM] | AUC (MP470) | IC50 (MP470) [nM]
HTC-C3 (thyroid, adherent) | 0.959 | > 16000 | 0.709 | 1320 | 0.984 | > 1020 | 0.957 | > 10000 | 0.605 | 32.2 | 0.983 | > 20000 | 0.786 | 500 | 0.894 | > 10200 | 0.911 | > 20000
ChaGo-K-1 (non-small cell lung carcinoma, adherent) | 0.978 | > 16000 | 0.532 | 388 | 0.984 | > 1020 | 0.983 | > 10000 | 0.661 | 48.2 | 0.967 | > 20000 | 0.713 | 284 | 0.976 | > 10200 | 0.981 | > 20000
SN12C (kidney, adherent) | 0.959 | > 16000 | 0.656 | 897 | 0.984 | > 1020 | 0.978 | > 10000 | 0.675 | 52.5 | 0.961 | > 20000 | 0.787 | 505 | 0.967 | > 10200 | 0.861 | > 20000
SW620 (large intestine, adherent) | 0.988 | > 16000 | 0.622 | 648 | 0.989 | > 1020 | 0.989 | > 10000 | 0.451 | 12 | 0.985 | > 20000 | 0.276 | 16.3 | 0.975 | > 10200 | 0.958 | > 20000
H3118 (head and neck, adherent) | 0.983 | > 16000 | 0.566 | 482 | 0.983 | > 1020 | 0.96 | > 10000 | 0.474 | 13.5 | 0.966 | > 20000 | 0.174 | 5.84 | 0.974 | > 10200 | 0.893 | > 20000
LK-2 (lung squamous cell carcinoma, adherent) | 0.978 | > 16000 | 0.726 | 1310 | 0.989 | > 1020 | 0.984 | > 10000 | 0.787 | 105 | 0.983 | > 20000 | 0.88 | 962 | 0.948 | > 10200 | 0.917 | > 20000
Hep 3B2_1-7 (liver, adherent) | 0.951 | > 16000 | 0.555 | 441 | 0.982 | > 1020 | 0.952 | > 10000 | 0.453 | 11.9 | 0.961 | > 20000 | 0.276 | 14.8 | 0.969 | > 10200 | 0.935 | > 20000
A427 (non-small cell lung carcinoma, adherent) | 0.971 | > 16000 | 0.389 | 155 | 0.985 | > 1020 | 0.985 | > 10000 | 0.517 | 17.8 | 0.98 | > 20000 | 0.77 | 395 | 0.974 | > 10200 | 0.94 | > 20000
GP5d (large intestine, adherent) | 0.989 | > 16000 | 0.55 | 422 | 0.991 | > 1020 | 0.99 | > 10000 | 0.619 | 32.8 | 0.989 | > 20000 | 0.368 | 28.9 | 0.982 | > 10200 | 0.941 | > 20000
TYK-nu (ovary, adherent) | 0.984 | > 16000 | 0.522 | 360 | 0.985 | > 1020 | 0.983 | > 10000 | 0.882 | > 256 | 0.958 | > 20000 | 0.507 | 66.8 | 0.985 | > 10200 | 0.942 | > 20000
NCI-H1734 (lung adenocarcinoma, adherent) | 0.981 | > 16000 | 0.57 | 495 | 0.985 | > 1020 | – | – | 0.641 | 41.1 | 0.984 | > 20000 | 0.32 | 19 | 0.983 | > 10200 | 0.984 | > 20000
RKN (ovary, adherent) | 0.976 | > 16000 | 0.511 | 335 | 0.982 | > 1020 | 0.983 | > 10000 | 0.621 | 35.2 | 0.974 | > 20000 | 0.837 | 744 | 0.986 | > 10200 | 0.954 | > 20000
ABC-1 (lung adenocarcinoma, adherent) | 0.972 | > 16000 | 0.535 | 398 | 0.975 | > 1020 | 0.958 | > 10000 | 0.596 | 31.1 | 0.953 | > 20000 | 0.325 | 18.7 | 0.981 | > 10200 | 0.783 | 10300
OVCAR-3 (ovary, adherent) | 0.955 | > 16000 | 0.549 | 432 | 0.984 | > 1020 | 0.982 | > 10000 | 0.775 | 112 | 0.986 | > 20000 | 0.683 | 221 | 0.987 | > 10200 | 0.987 | > 20000
